# In the supplement of paper PMC10037445:
# Where “and” joins values, the source holds several entries; their conditions need not be identical. Identical values can stand only once. ± gives the standard deviation of the averaged measurements. Over roughly 2,900 compounds, “IRF Lucia reporter activity, fold change vs agonist alone” has its median near 0.9; the highest 2% begin near 2.8. The list shows a part of the results.
# Columns and labels:
# RAW-Dual [1] = assay: IRF Lucia reporter activity, fold change vs agonist alone; higher = enhanced IRF activity; settings: agonist: MPLA (TLR4) […]
# Procedure, shortened: (§1)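 Supernatant from RAW-Dual macrophages was read after 20 hours for IRF by QuantiLuc luminescence and for NF-κB by QuantiBlue absorbance at 620 nm. The cells (50,000 cells/well in DMEM, 384-well plates, 37 °C, 5% CO2) had received 50 nL of library stock by pin tool and, 1 h later, a PRR agonist. Reporter activity is expressed relative to agonist-alone wells as fold change, and wells were flagged cytotoxic if IncuCyte confluency was under 70% of agonist controls in both mask sets.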
# RAW-Dual [2] = assay: IRF Lucia reporter activity, fold change vs agonist alone; cytotoxicity flag (confluency mask): not cytotoxic; higher = enhanced IRF activity
# Procedure, shortened: as §1
# RAW-Dual [3] = assay: IRF Lucia reporter activity, fold change vs agonist alone; cytotoxicity flag (confluency mask): cytotoxic (confluency <70% of control); higher = enhanced IRF activity
# Procedure, shortened: as §1
# [4] = library stock concentration (final ~1000-fold dilution): 10 mM, cytotoxicity flag (confluency mask): not cytotoxic
# [5] = agonist: 3'3'-cGAMP (STING) 10 ug/mL
smiles,measurement,setting,value
O=c1oc2ccccc2c(O)c1Cc1c(O)c2ccccc2oc1=O,IRF Lucia reporter activity,RAW-Dual [1]; [4],1.06
O=c1oc2ccccc2c(O)c1Cc1c(O)c2ccccc2oc1=O (library stock concentration (final ~1000-fold dilution): 10 mM),IRF Lucia reporter activity,RAW-Dual [2]; [5],1.04
same,IRF Lucia reporter activity,RAW-Dual [2]; agonist: LPS (TLR4) 0.1 ug/mL,1.27
CC(CSC(=O)c1ccccc1)C(=O)N1CC(Sc2ccccc2)CC1C(=O)O (stereo not given),IRF Lucia reporter activity,"RAW-Dual [1]; library stock concentration (final ~1000-fold dilution): 2 mM, cytotoxicity flag (confluency mask): not cytotoxic",1.34
CC(CSC(=O)c1ccccc1)C(=O)N1CC(Sc2ccccc2)CC1C(=O)O (stereo not given) (library stock concentration (final ~1000-fold dilution): 2 mM),IRF Lucia reporter activity,RAW-Dual [2]; [5],0.997
same,IRF Lucia reporter activity,RAW-Dual [2]; agonist: LPS (TLR4) 0.1 ug/mL,1.01
CS(=O)(=O)N1CCc2c(-c3cnc(N)nc3)nc(N3CCOCC3)nc21,IRF Lucia reporter activity,RAW-Dual [1]; [4],1.07
CS(=O)(=O)N1CCc2c(-c3cnc(N)nc3)nc(N3CCOCC3)nc21 (library stock concentration (final ~1000-fold dilution): 10 mM),IRF Lucia reporter activity,RAW-Dual [2]; [5],0.838
same,IRF Lucia reporter activity,RAW-Dual [2]; agonist: LPS (TLR4) 0.1 ug/mL,0.852
C=C(C)C(=O)Nc1cccc(-c2ncnc3[nH]cc(C(=O)OCC)c23)c1 (library stock concentration (final ~1000-fold dilution): 10 mM),IRF Lucia reporter activity,RAW-Dual [2]; [5],0.831
same,IRF Lucia reporter activity,RAW-Dual [2]; agonist: LPS (TLR4) 0.1 ug/mL,0.835
Cc1ccccc1CN1C2=NCCN2C(=O)C2=C1CCN(Cc1ccccc1)C2,IRF Lucia reporter activity,RAW-Dual [1]; [4],1.02
Cc1ccccc1CN1C2=NCCN2C(=O)C2=C1CCN(Cc1ccccc1)C2 (library stock concentration (final ~1000-fold dilution): 10 mM),IRF Lucia reporter activity,RAW-Dual [2]; [5],1.02
same,IRF Lucia reporter activity,RAW-Dual [2]; agonist: LPS (TLR4) 0.1 ug/mL,1.17
Cc1ccc2c(c1)C(=O)C1(O)CCN(c3ccccc3)C1=N2 (stereo not given) (library stock concentration (final ~1000-fold dilution): 10 mM),IRF Lucia reporter activity,RAW-Dual [2]; [5],0.478
same,IRF Lucia reporter activity,RAW-Dual [2]; agonist: LPS (TLR4) 0.1 ug/mL,1.31
Cc1ccc2c(c1)C(=O)C1(O)CCN(c3ccccc3)C1=N2 (stereo not given),IRF Lucia reporter activity,RAW-Dual [1]; [4],0.995
CCCCCCCCCCCCCCCC(=O)NC(CCSC)C(=O)NCC(=O)NC(Cc1ccc(O)cc1)C(=O)NC(CCC(N)=O)C(=O)NC(CCCCN)C(=O)NC(CCCCN)C(=O)NC(CC(C)C)C(=O)NC(CCCNC(=N)N)C(=O)NC(CO)C(=O)NC(CCSC)C(=O)NC(C(=O)NC(CC(=O)O)C(=O)NC(CCCCN)C(=O)NC(Cc1ccc(O)cc1)C(=O)NC(CCCNC(=N)N)C(=O)NC(CC(C)C)C(=O)O)C(C)O (stereo not given) (library stock concentration (final ~1000-fold dilution): 10 mM),IRF Lucia reporter activity,RAW-Dual [3]; [5],0.218
same,IRF Lucia reporter activity,RAW-Dual [3]; agonist: LPS (TLR4) 0.1 ug/mL,0.995
C=CC(=O)Nc1cccc(Oc2nc(Nc3ccc(N4CCN(C)CC4)cc3OC)ncc2Cl)c1,IRF Lucia reporter activity,RAW-Dual [1]; [4],0.889
C=CC(=O)Nc1cccc(Oc2nc(Nc3ccc(N4CCN(C)CC4)cc3OC)ncc2Cl)c1 (library stock concentration (final ~1000-fold dilution): 10 mM),IRF Lucia reporter activity,RAW-Dual [2]; [5],0.763
same,IRF Lucia reporter activity,RAW-Dual [2]; agonist: LPS (TLR4) 0.1 ug/mL,0.982
O=C(/C=C/c1ccc(O)c(O)c1)OCCc1ccccc1 (library stock concentration (final ~1000-fold dilution): 10 mM),IRF Lucia reporter activity,RAW-Dual [3]; [5],0.0122 and 0.0159
same,IRF Lucia reporter activity,RAW-Dual [3]; agonist: LPS (TLR4) 0.1 ug/mL,0.0688 and 0.174
O=C(/C=C/c1ccc(O)c(O)c1)OCCc1ccccc1,IRF Lucia reporter activity,"RAW-Dual [1]; library stock concentration (final ~1000-fold dilution): 10 mM, cytotoxicity flag (confluency mask): cytotoxic (confluency <70% of control)",0.381 ± 0.45
CCCC(Nc1nc(-c2ccc(NC(=O)NCC)c(OC)c2)ncc1C)c1cccnc1 (stereo not given) (library stock concentration (final ~1000-fold dilution): 10 mM),IRF Lucia reporter activity,RAW-Dual [2]; [5],0.151
same,IRF Lucia reporter activity,RAW-Dual [2]; agonist: LPS (TLR4) 0.1 ug/mL,1.32
CCCC(Nc1nc(-c2ccc(NC(=O)NCC)c(OC)c2)ncc1C)c1cccnc1 (stereo not given),IRF Lucia reporter activity,RAW-Dual [1]; [4],1.7
CC(C)=CCC/C(C)=C/Cc1c(O)c(CC=C(C)C)c2c(c1O)C(=O)C1=CC3CC4C(C)(C)OC(C/C=C(/C)C(=O)O)(C3=O)C14O2 (stereo not given) (library stock concentration (final ~1000-fold dilution): 10 mM),IRF Lucia reporter activity,RAW-Dual [3]; [5],0.0207
same,IRF Lucia reporter activity,RAW-Dual [3]; agonist: LPS (TLR4) 0.1 ug/mL,0.666
COc1cc2c3cc1Oc1c(OC)c(OC)cc4c1[C@@H](Cc1ccc(O)c(c1)Oc1ccc(cc1)C[C@@H]3N(C)CC2)N(C)CC4 (library stock concentration (final ~1000-fold dilution): 10 mM),IRF Lucia reporter activity,RAW-Dual [2]; [5],1.09
same,IRF Lucia reporter activity,RAW-Dual [2]; agonist: LPS (TLR4) 0.1 ug/mL,1.09
CCOC(=O)Nc1cc(-c2ccc(C)c(NS(C)(=O)=O)c2)nn2c(C)nnc12,IRF Lucia reporter activity,RAW-Dual [1]; [4],0.157
CCOC(=O)Nc1cc(-c2ccc(C)c(NS(C)(=O)=O)c2)nn2c(C)nnc12 (library stock concentration (final ~1000-fold dilution): 10 mM),IRF Lucia reporter activity,RAW-Dual [2]; [5],0.315
same,IRF Lucia reporter activity,RAW-Dual [2]; agonist: LPS (TLR4) 0.1 ug/mL,0.183
CC1CCN(C(=O)CC#N)CC1N(C)c1ncnc2[nH]ccc12.O=C(O)CC(O)(CC(=O)O)C(=O)O (stereo not given),IRF Lucia reporter activity,RAW-Dual [1]; [4],0.557
CC1CCN(C(=O)CC#N)CC1N(C)c1ncnc2[nH]ccc12.O=C(O)CC(O)(CC(=O)O)C(=O)O (stereo not given) (library stock concentration (final ~1000-fold dilution): 10 mM),IRF Lucia reporter activity,RAW-Dual [2]; [5],0.221
same,IRF Lucia reporter activity,RAW-Dual [2]; agonist: LPS (TLR4) 0.1 ug/mL,0.622
CN(C)C/C=C/C(=O)Nc1cc2c(Nc3ccc(F)c(Cl)c3)ncnc2cc1OC1CCOC1.O=C(O)/C=C\C(=O)O.O=C(O)/C=C\C(=O)O (stereo not given) (library stock concentration (final ~1000-fold dilution): 10 mM),IRF Lucia reporter activity,RAW-Dual [3]; [5],0.0121
same,IRF Lucia reporter activity,RAW-Dual [3]; agonist: LPS (TLR4) 0.1 ug/mL,0.0196
